Results as given in PubChem BioAssay AID463173 (ICCB-Longwood Screening Facility, Harvard Medical School, 2010).
The whole screen tested about 52,000 compounds, of which about 1,700 (3.3%) were called active. No stated cut-off is given here; in the data, active means survival mostly below about 52% (no sharp cut-off); inactive means mostly above about 56%. The list shows a part of the results.

System: Wild type
Experiment: S. aureus survival, RN4220 and DeltatarO strains – OD600, teichoic acid synthesis inhibitors, primary screen (AID 463173)
Details: S. aureus RN4220 wild type/DeltatarO growth, OD600, 18 h, active compounds read low, screened at 18.75 µg/mL (by protocol)

Structure (SMILES)	survival
COc1ccc(N2CCN(C(=O)CCc3c(C)nc4cc(-c5ccc(Cl)cc5)nn4c3C)CC2)cc1	inactive: 118%
Cc1ccc2cc(CNCc3cccnc3)c(=O)[nH]c2c1	inactive: 103%
COc1ccc(-c2[nH]nc3nc(-c4cc(OC)c(OC)c(OC)c4)cc(C(=O)O)c23)cc1	inactive: 86%
Cc1ccc(CCNC(=O)c2cn(C)c3ccc(S(=O)(=O)N4CCCCC4)cc3c2=O)cc1	inactive: 83%
CCCS(=O)(=O)N1CCCC(C(=O)NCCCOC)C1 (configuration not stated)	inactive: 73%
Cc1ccccc1CNC(=O)C(=O)NCC(c1ccco1)S(=O)(=O)c1ccccc1 (configuration not stated)	inactive: 76%
COc1ccc(C(=O)Nc2nnc(S(=O)(=O)N(C)c3ccc(Cl)cc3)s2)cc1OC	inactive: 78%
COC(=O)C1=NNC2C(=O)N(C3CCCCC3)C(=O)C12 (configuration not stated)	inactive: 111%
Cc1ccc2[nH]c(CSc3nnc(NC(=O)c4ccccc4C)s3)cc(=O)c2c1	inactive: 72%
O=C1CCCN1c1ccc(S(=O)(=O)NCCOc2ccccc2Cl)cc1	inactive: 105%
CCc1cccc(NC(=O)CCS(=O)(=O)c2cc(Br)cc3c2N(C(C)=O)CC3)c1	inactive: 137%
COc1cc(OC)cc(C(=O)Nc2ccc3c(c2)N(C2CCCC2)C(=O)c2ccccc2S3)c1	inactive: 123%
O=C(NCc1ccccc1Cl)c1cc2ccccc2o1	inactive: 31%
O=C(CSc1nc2ccccc2nc1Cc1ccccc1)N1CCCCC1	inactive: 92%
COc1cc(-c2nc3ncccn3c2Nc2ccc(C)cc2C)ccc1O	inactive: 132%
CCOc1ccccc1NC(=O)N1CCN(Cc2nc3ccc(C)cc3o2)CC1	inactive: 64%
Cc1ccc(C)c(N2CCN(S(=O)(=O)c3c(C)nc4sccn4c3=O)CC2)c1	inactive: 86%
CCOc1ccc(-c2nnc(SCC(=O)NCc3ccccc3)nc2-c2ccc(OCC)c(OC)c2)cc1OC	inactive: 77%
CCc1ccc(C2CC(=O)Nc3c2c(C)nn3-c2nc(C)cc(C)n2)cc1 (configuration not stated)	inactive: 92%
CCCCOc1cccc(C(=O)Nc2ccc3oc(-c4cccnc4)nc3c2)c1	inactive: 72%
Cc1cc(C)cc(-n2c(SCC(N)=O)nc3c(oc4ccccc43)c2=O)c1	inactive: 74%
COc1cccc(Nc2c3c(nc4nncn24)CCC3)c1	inactive: 84%

Structure (SMILES)	survival
CCOc1ccccc1NC(=O)Cn1cnc2sc(C)c(S(=O)(=O)N3CCC(C)CC3)c2c1=O	inactive: 86%
C/C=C/C(=O)Oc1ccc(Cl)cc1	inactive: 105%
O=C(O)C1CC=CCC1C(=O)NCCc1ccccc1 (configuration not stated)	inactive: 106%
O=C(Cc1cccs1)Nn1c(Cc2cccs2)nc2ccccc2c1=O	inactive: 95%
Cc1cccc(C)c1Nc1sc(C(=O)c2ccccc2)c(N)c1C(=O)Nc1ccc(F)cc1	inactive: 71%
COc1cccc(-c2ccc3c(N)c(C(=O)c4ccc(Cl)cc4)sc3n2)c1	inactive: 39%
CCc1cccc(NC(=O)Cn2nc(-c3ccc(OC)cc3)ccc2=O)c1	inactive: 59%
CCOc1ccccc1NC(=O)Cn1c(=O)n(Cc2ccccc2)c(=O)c2c(C)c(C)sc21	inactive: 92%
CCOC(=O)c1ccc(N2C(=O)c3n[nH]c(-c4cccs4)c3C2c2ccc(C(C)(C)C)cc2)cc1 (configuration not stated)	inactive: 88%
O=C(Nc1nc2n(n1)C(c1ccccc1)C=C(c1ccccc1)N2)c1ccc(Cl)c([N+](=O)[O-])c1 (configuration not stated)	inactive: 88%
Cc1ccc(NC(=O)c2c(C)oc3ccc(O)c(CN4CCCCCC4)c23)c(C)c1	inactive: 96%
CCOC(=O)c1[nH]c(C)c(CCC(=O)NCc2ccc(OCC)cc2)c1C	inactive: 78%
COc1ccc(S(=O)(=O)N(Cc2cc3c(C)cc(C)cc3[nH]c2=O)CC2COCCO2)cc1 (configuration not stated)	inactive: 111%
COc1cc(NC(=O)C2CCCN(S(=O)(=O)c3ccc4c(c3)oc(=O)n4C)C2)c(C(=O)O)cc1OC (configuration not stated)	inactive: 91%
O=C(Nc1ccc2c(c1)Cc1ccccc1-2)c1ccc(Br)o1	inactive: 118%
CCCCC(Sc1nc2cc3c(cc2c(=O)n1CCCC(=O)NCc1ccc(OC)cc1)OCO3)C(=O)OCC (configuration not stated)	inactive: 112%
CC(C)OCCCNC(=O)c1cc2c(-c3ccc(Cl)cc3)nn(C)c2s1	inactive: 128%
COc1ccc2c(C)c(CC(=O)NCc3ccc(C)cc3)c(=O)oc2c1OC	inactive: 117%
CCc1ccc(NC(=O)C(=O)NCCc2csc(-c3ccc(C(F)(F)F)cc3)n2)cc1	inactive: 124%
CC1=C(C#N)C(c2cccc(O)c2)C2=C(CC(c3ccccc3)CC2=O)N1 (configuration not stated)	inactive: 113%
Cc1cc(C)c(NC(=O)Cn2c(=O)n(Cc3ccc4c(c3)OCO4)c(=O)c3ccc(C(=O)NC4CCCCC4)cc32)c(C)c1	inactive: 81%
Cc1ccc(NCc2nnc(SCC(=O)O)n2-c2cccc(Cl)c2)cc1	inactive: 109%

Structure (SMILES)	survival
O=C(NCc1ccccc1F)c1ccc(CN2CC(=O)N3CCCCC3C2=O)cc1 (configuration not stated)	inactive: 80%
N#C/C(=C\c1ccc(Cl)cc1)c1nc(-c2cc3ccccc3oc2=O)cs1	inactive: 76%
COc1cccc(C(=O)N2c3cc(C)ccc3C(C)(c3ccccc3)CC2(C)C)c1 (configuration not stated)	active: 1%
O=C(CN(CC1CCCO1)S(=O)(=O)c1ccc(S(=O)(=O)N2CCOCC2)cc1)Nc1ccccc1 (configuration not stated)	inactive: 99%
CCOC(=O)c1c(-c2ccccc2)oc2cc(CN(C)C)c(O)c(CN(C)C)c12	inactive: 109%
CCc1ccc(CNC(=O)c2cnc3sc4cc(OC)ccc4n3c2=O)cc1	inactive: 83%
CCCn1c2ccccc2c2cnn(CC(=O)N3CCC(C)CC3)c(=O)c21	inactive: 67%
CCOC(=O)c1sc2cccc(F)c2c1S(=O)(=O)N1CCN(c2cccc(Cl)c2)CC1	inactive: 99%
CCC1/C(=N\O)CC(c2ccco2)NC1c1ccco1 (configuration not stated)	inactive: 121%
COc1ccc(Nc2ncc3c(n2)CCN(Cc2cc(Br)cs2)C3)c(OC)c1	inactive: 70%
CN1CCN(C(=O)/C(=C/c2ccc(N(C)C)cc2)NC(=O)c2ccccc2)CC1	inactive: 97%
CCCCOc1ccccc1C(=O)N(Cc1ccc(C)o1)C1CCS(=O)(=O)C1 (configuration not stated)	inactive: 93%
Cc1ccc(NC(=O)CSc2nc3c(oc4ccccc43)c(=O)n2-c2ccc(F)cc2)c(C)c1	inactive: 88%
O=C(O)CSc1c2c(nc3cc(C(=O)Nc4ccc(F)c(Cl)c4)ccc13)CCC2	inactive: 77%
COc1ccccc1NC(=O)c1cc2c(=O)oc3ccc(C)cc3c2s1	inactive: 84%
CCOC(=O)c1ccc(N2CCN(c3cc(C)ccc3C)CC2)c(NC(=O)Nc2ccccc2)c1	inactive: 55%
Cc1cccn2c(=O)c3cc(C#N)c(=O)n(-c4nnc(SCc5ccccc5F)s4)c3nc12	inactive: 87%
COCCCNC(=O)CCCCn1c(=O)c2ccccc2n(CC(=O)Nc2ccc(C)cc2C)c1=O	inactive: 82%
Cn1nc(-c2ccc(C(=O)Nc3ccc(F)cc3)cc2)c2ccccc2c1=O	inactive: 80%
C=Cc1ccc(Cn2nc(-c3ccc(C)c(S(=O)(=O)N(CC)CC)c3)ccc2=O)cc1	inactive: 57%
COc1ccc2cc(-c3nc4ccc(C(=O)O)cc4[nH]3)c(=O)oc2c1	inactive: 65%
Cc1cccc(-c2nnc(N(C(=O)C3CCC3)C(C)C)s2)c1	inactive: 111%

Structure (SMILES)	survival
CCOc1ccccc1NC(=O)Cn1nnc2sc(-c3ccccc3)cc2c1=O	inactive: 83%
CC(C)c1ccc(S(=O)(=O)NCc2ccc3c(c2)CCN3C(=O)c2ccccc2)cc1	inactive: 72%
COCCNC(=O)CSc1nc2cc3c(cc2c(=O)n1CCCCCC(=O)NCc1ccc(OC)cc1)OCO3	inactive: 63%
COc1ccc(CNC(=O)c2ccc3c(c2)nc2n3CCC(C)C2)c(OC)c1 (configuration not stated)	inactive: 71%
CCOc1ccccc1NC(=O)c1c(NC(=O)c2cccc(C)c2)sc2c1CCCC2	inactive: 77%
CCc1ccccc1NC(=O)Nc1cc(C(=O)NCc2ccc(C)cc2)ccc1N1CCCC1	inactive: 132%
COc1ccc(Br)cc1C(=O)Nc1nc2ccc(F)cc2s1	inactive: 77%
CC(C(=O)NCc1ccccc1F)n1ccc2cc(S(=O)(=O)N3CCCC3)ccc21 (configuration not stated)	inactive: 47%
CC1CN(C(=O)Nc2ccc(C(=O)NCc3cccc(F)c3)cc2)c2ccccc2S1 (configuration not stated)	inactive: 72%
Cc1sc(N)nc1-c1cccs1	inactive: 118%
O=C(Nc1ccc(C(F)(F)F)cc1)C1CCCN(c2cnccn2)C1 (configuration not stated)	inactive: 76%
O=c1c(S(=O)(=O)c2ccccc2)cn(Cc2ccccc2)c2cc(N3CCOCC3)c(F)cc12	inactive: 94%
COc1cc(C(=O)Nc2ccc3oc(-c4ccc(C)c(Br)c4)nc3c2)cc(OC)c1OC	inactive: 129%
COc1ccc(N2CCN(c3oc(/C=C/c4cc(OC)c(OC)c(OC)c4)nc3C#N)CC2)cc1	inactive: 79%
Cc1cc(C)cc(Oc2nc3c(c(=O)n(C)c(=O)n3C)n2Cc2ccc(F)cc2)c1	inactive: 76%
CCOC(=O)c1ccccc1NC(=O)N(C)CCc1c(C)nn(CC)c1C	inactive: 77%
COc1ccc(F)cc1S(=O)(=O)NCCc1sc2nc(-c3ccc(F)cc3)nn2c1C	inactive: 57%
CCc1nnc(SCC(=O)Nc2ccc(F)cc2F)c2cc3sc(C)cc3n12	inactive: 112%
Cc1cc(OCC(=O)N(Cc2sccc2C)C2CCS(=O)(=O)C2)ccc1Cl (configuration not stated)	inactive: 82%
COc1ccc(Nc2cc(C(=O)NCc3ccccc3OC)c3ccccc3n2)cc1	active: -6%
Cc1cc(C)c2c(CC(=O)Nc3c(C(=O)Nc4ccc(Cl)cc4)oc4ccccc34)coc2c1	inactive: 85%
